From patent US11723894B2, “Combination product for the treatment of neurological and/or psychiatric disorders” (Consejo Superior de Investigaciones Cientificas (CSIC), priority 2017, dated 2023)

Tests used:
[1] = system: adult neural stem cells derived from the subgranular zone of the hippocampus; test: Differentiation of neurospheres into neurons and glial cells (Tuj1, MAP-2, CNPase, GFAP); conditions: for blockade of the effects of DMT on differentiation: antagonist 1 μM with DMT 1 μM; for effect on Tuj1 and MAP-2 expression in the presence of Ritanserin: tryptamine 1 μM after 1 h pre-treatment with Ritanserin 1 μM; for expression of the two neuronal markers Tuj1 and MAP-2: tryptamine alone 1 μM
[2] = system: adult neural stem cells derived from the subgranular zone of the hippocampus; test: Stemness markers (musashi-1, nestin, SOX-2) in neurospheres, Western blot; type: cell-based, mice; conditions: 7 days; for blockade of the DMT-induced reduction of musashi-1, nestin and SOX-2: antagonist 1 μM with DMT 1 μM
[3] = system: adult neural stem cells derived from the subgranular zone of the hippocampus; test: Neural stem cell proliferation (Ki67) in neurospheres; type: cell-based, mice; conditions: 7 days; for blockade of DMT-induced increase in Ki67: antagonist 1 μM with DMT 1 μM
[4] = system: adult neural stem cells derived from the subgranular zone of the hippocampus; test: Neurosphere formation (number and size); type: cell-based, mice; conditions: 7 days; for blockade of DMT-induced increase in neurosphere number and size: antagonist 1 μM with DMT 1 μM
[5] = 3 days differentiation conditions
[6] = DMT 1 μM, vs vehicle-treated cultures

SMILES | blockade of the effects of DMT on differentiation [1] | blockade of the DMT-induced reduction of musashi-1, nestin and SOX-2 [2] | blockade of DMT-induced increase in Ki67 [3] | blockade of DMT-induced increase in neurosphere number and size [4] | effect on Tuj1 and MAP-2 expression in the presence of Ritanserin [1] | expression of the two neuronal markers Tuj1 and MAP-2 [1, 5] | further results
CSc1ccc2c(c1)C(N1CCN(C)CC1)Cc1ccccc1S2 (stereo not drawn) [methiothepin] | not blocked | not blocked | not blocked | but not by | – | – | –
COc1ccccc1N1CCN(CCN(C(=O)C2CCCCC2)c2ccccn2)CC1 [WAY100635] | not blocked | not blocked | not blocked | but not by | – | – | –
Cc1nc2sccn2c(=O)c1CCN1CCC(=C(c2ccc(F)cc2)c2ccc(F)cc2)CC1 [ritanserin] | not blocked | not blocked | not blocked | but not by | – | – | –
COc1ccc2[nH]cc(CCN(C)C)c2c1 [5-MeO-DMT, 5-methoxy-N,N-dimethyltryptamine] | – | – | – | – | maintained | increase in the expression | –
CCN(CC)CCc1c[nH]c2ccccc12 [DET, N,N-diethyltryptamine] | – | – | – | – | maintained | increase in the expression | –
CCCN(CCC)CCc1c[nH]c2ccccc12 [DPT, N,N-dipropyltryptamine] | – | – | – | – | maintained | increase in the expression | –
CN1CCN(CCc2ccc(Cl)c(Cl)c2)CC1 [BD1063] | blocked | blocked | blocked | blocked | – | – | –
CN(C)CCc1c[nH]c2ccccc12 [DMT, N,N-dimethyltryptamine] | – | – | – | – | – | – | expression of neuronal markers (Tuj1 & MAP-2), oligodendrocyte marker (CNPase) and astrocyte marker (GFAP) ([1]; DMT 1 μM, 3 days differentiation conditions): increase in the expression; protein levels of musashi-1, nestin and SOX-2 in the neurospheres ([2]; DMT 1 μM, vs saline): significantly reduced; number of Ki67-positive cells ([3]; DMT 1 μM): increase; number of neurospheres [4, 6]: significantly higher; size of the neurospheres [4, 6]: increased significantly
